Measurements reported in the supplement of paper PMC11417369.
± gives the standard deviation of the averaged measurements. The list shows a part of the results.

These sequences were tested on PfAP2-LT AP2 domain (GST-tagged) (assay: gcPBM binding intensity (ln(normalized median fluorescence intensity)); higher = stronger DNA binding).
Summary of the method: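 Binding of GST-tagged P. falciparum DNA-binding domains, expressed in E. coli and used at about 25 μg on average, was carried out for 1 h in 1× PBS containing 1% milk, 0.2 mg/ml BSA, 0.5% salmon testes DNA and 0.03% Triton X-100. The target was an Agilent 4 × 180k array of primer-extended double-stranded 36-bp intergenic genomic probes plus negative controls, read with Alexa488 anti-GST antibody at 488 nm. Binding intensity is the highest Masliner-normalised natural-log median intensity across replicate spots of either probe orientation.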

Sequence | gcPBM binding intensity (ln)
ATATATAAAATTATATGTACATATATCTATTTATAA [XGTACX_site3713] | 8.62 ± 0.46
ACCTCACAAATGAATACACACAAACATATAGATTTA [CACACA_site6862] | 9.12 ± 0.5
TTTAAAATTTCTTAATGTACGTAATAAAAAAAAAAA [XGTACX_site4037] | 8.15 ± 0.4
GATTAAAACTTTAACTGTACATAATAATTATCAATC [XGTACX_site5938] | 8.6 ± 0.36
TATGTATAACTCAATGCATGCGAAGGACTATTATTT [TGCATGCA_site222] | 8.94 ± 0.15
AATATTGTTCACAAGGTGCTTTTTATTCATACTAAT | 8.87 ± 0.35
TATAAAGCAACTGAAACACACAAATTTTTTTTTTTT [CACACA_site3218] | 8.72 ± 0.44
ACTATTTTCTTCAAAACATGCACCACATAAACATAA [TGCATGCA_site200] | 8.68 ± 0.32
ATTATTTATTTATGTGTGCGCATGTGTGTAAATATT | 9.74 ± 0.28
TTAAACATATATTAAGCACACACAAACAAAAAAACA [CACACA_site8816] | 9.37 ± 0.31
TATACCAAATATATGGGTACACAAATATGTTTATTC [XGTACX_site8932] | 8.84 ± 0.42
AACATATTTTTTTGTTGTACTTACAATTATAAGCAT [XGTACX_site3056] | 8.64 ± 0.43
TAATTAATCGATTTACGCACATGAACAAAAGCACAT [CACACA_negctrl_site1287] | 8.95 ± 0.36
ATATATATATATATGTGTACATATTTTTTTTTTTTT [XGTACX_site3425] | 9.645 ± 0.05
AGAAAAAAAAAAAATGCACACATTTTCATTGTCAGT [CACACA_site1935] | 8.9 ± 0.42
AAAAAACACAGACATACACACAAAAAGGTTATAAAT [CACACA_site4222] | 9.49 ± 0.31
GTAAATATTAATAAAAGTACATATGTAGCATATGGA [XGTACX_site5219] | 9.07 ± 0.43
CCTTTTTTATTTACAACACACGTAAAGGTTCAAATA [CACACA_site1741] | 8.68 ± 0.42
ATTTTTTAAATGAGGCGTACACAAAAATATAATTAC [XGTACX_site7087] | 8.93 ± 0.37
TATATATATATATATACACACACACTAATAAAAAAA [CACACA_site8426] | 9.65 ± 0.057
CTTAGATATAAAAATTGTACATACATATTTTTGACA [XGTACX_site2107] | 8.5 ± 0.3
TTTTTTTCGTAAAAAAAAATAATTATTAAATGAAGG [TGCATGCA_negctrl_site212] | 8.04 ± 0.33
ACAGAAAAAAGACACACACACATAATATACATACAT [CACACA_site6991] | 10.1 ± 0.42

Sequence | gcPBM binding intensity (ln)
TATTTTTAATAAAAACGTACGGAATACAAAAAAAAT [XGTACX_site3477] | 8.78 ± 0.38
TATTATAAAATATACACATGCAAAAACAAAATTTAC [TGCATGCA_site1051] | 8.84 ± 0.38
TATATACATTGGTATACATGCATTCTCTTTCATACA [TGCATGCA_site734] | 8.87 ± 0.48
TAAAATTTATAAACTACACACATATAAATAGTAATA [CACACA_site7708] | 8.84 ± 0.42
TAAACACCCATATAAACACACATATAAACACCCATA [CACACA_site5382] | 9.4 ± 0.21
TTTATTTATTTTTAACGTACGCACACATATAAATAT [XGTACX_site4042] | 9.41 ± 0.54
TAATGAAGATATATAACACACAAAAGTTATAAATAT [CACACA_site6678] | 8.97 ± 0.43
ATATATAATAATATATGTACATAATATTTTTTTTTT [XGTACX_site1941] | 8.61 ± 0.47
GCCATTAATTTATACACACACATTAAAATTTTTTAT [CACACA_site4575] | 9.24 ± 0.37
GCTATAAATACAGACGCACACATATACATACATATA [CACACA_site3329] | 9.42 ± 0.33
TAATTTATAAATAATTGTACATAGTTTATTTAGATT [XGTACX_site4599] | 8.49 ± 0.43
TAATTATAAAAATAAAACAACCAAATTTGTTATATA [CACACA_negctrl_site750] | 8.47 ± 0.45
AAAAAAAAAAAAAAAAAATAATAAAAAATAAAAAAA [GTGCAC_negctrl_site341] | 8.4 ± 0.57
ATATATATAAAATAAAGTACCCGTAAAACCTATATG [XGTACX_site6937] | 8.98 ± 0.41
TATGTTAATCCTATTTGTACATATAATCGAATTAAA [XGTACX_site7090] | 8.47 ± 0.39
GACGACTATATTAATTGTACTCAATTTAAGCATAAT [XGTACX_site2750] | 8.72 ± 0.35
GAAAGGAAAAGTTGAACACACAAAGTAAACTATAAG [CACACA_site3535] | 9.1 ± 0.53
ATATATATATTAATTACACACAAAAAAAAAAAAAAA [CACACA_site1165] | 8.84 ± 0.41
AAAAAAAAAAAAAATATACACACTAATATATTTTTT [CACACA_site815] | 8.73 ± 0.41
TCATTCGAATAAATTGCACACATGACATCCGTTGTA [CACACA_site2587] | 9.16 ± 0.33
TATATACAGATATATACACACATATTTATATTTTAT [CACACA_site7734] | 8.89 ± 0.41
GTATAGAGAAAAAACTGTACTTTATATAAATATTTA [XGTACX_site3972] | 8.52 ± 0.48
TATTAATAATATAATAGTACTTTCACTGTAAATTTA [XGTACX_site6419] | 8.41 ± 0.54

Sequence | gcPBM binding intensity (ln)
TATCCTACATTAACAAGTACAAAGAGATCCTACGTA [XGTACX_site4252] | 8.57 ± 0.34
AAGAATATATAGGACACACATACAATAATAAATATA [CACACA_site4119] | 9.16 ± 0.54
AACGCCACTTCAATGGCACACACCAATTATTTTTCA [CACACA_site1026] | 8.95 ± 0.39
TTTCTCCATATTAAAGTGCATTAATAACAAAAATAA [GTGCAC_site9934] | 8.31 ± 0.42
CAAGAACAAAAAATATGTACATATAATTATATATAT [XGTACX_site2082] | 8.99 ± 0.52
CATATCTCTTATTAATGTACATTTTTAAAAGTAAAT [XGTACX_site2847] | 8.49 ± 0.44
CTTTTTTTTATGAACAGTACAGAAATATATATATAC [XGTACX_site5613] | 8.5 ± 0.42
TTTATATAATGGAAAAGTACTCAGGAAATTTATACA [XGTACX_site3635] | 8.45 ± 0.35
TTTTTTTCTATAATACACCAGAAAAAAAAATTAAAA [TGCATGCA_negctrl_site257] | 8.09 ± 0.47
TTGTTCCAATAAAATCGTACAATTAAACAACCAAAC [XGTACX_site5759] | 8.91 ± 0.25
CAATCAACAAAACATACACACACATATATATATATA [CACACA_site8979] | 10 ± 0.33
AGATTGAAATATAGTTGTACAAATATTTTAAAACAT [XGTACX_site3026] | 8.87 ± 0.51
TTAAAATTAAAAATAGGTACACATATGAACAAGGAC [XGTACX_site1180] | 9.1 ± 0.43
TTATATGATATATGACGTACATATTAATAACATCTA [XGTACX_site6716] | 8.66 ± 0.32
TGTAATATTTTATAAAGTACATTATAATATAATTCA [XGTACX_site2961] | 8.32 ± 0.38
TTTAGCTATTATAGCTGTACAATGATAAAATAAATT [XGTACX_site6318] | 8.4 ± 0.42
ATGATTATAATTTAAAATATTTTACATAACCATTTC [GTGCAC_negctrl_site297] | 8.62 ± 0.45
ATAAGTAAAAATAAAAAAAAAATATATATATATATA [CACACA_negctrl_site1816] | 9.33 ± 0.14
GTTCATATCTTTTGAGCACACATATATATATATAAA [CACACA_site9099] | 8.88 ± 0.33
AATGAATCCTTATATACACACATTATTATATTATAT [CACACA_site3108] | 9.04 ± 0.4
ATTAGCAACATTGATAAATATAAACACACGAAAACA [TGCATGCA_negctrl_site97] | 9.07 ± 0.41
TTTTTGTTCTATATGGTGCATGTTTATATTCGTATT | 9.12 ± 0.52
TTTTAGAAATTTACTAAACTTTATATAACTATTGAA [TGCATGCA_negctrl_site280] | 8.13 ± 0.61

Sequence | gcPBM binding intensity (ln)
ATACCATAAATATTGTGTACATAAATATGTTAGTAA [XGTACX_site6077] | 8.84 ± 0.42
CACGTATATATATATACACACACATATATATATGTA [CACACA_site7948] | 9.32 ± 0.26
CATGTTTATGCCGTTTGTACATATATATCTAAAAAA [XGTACX_site4336] | 8.53 ± 0.28
GAGAAAAGGAAATTCACACATATAAAGAAAGATCTA [CACACA_site5420] | 8.71 ± 0.51
ATTGATACATCCAATACACACTACATATAATGATGT [CACACA_site8561] | 9.11 ± 0.34
GTATGTATGTATATATGTACACATTATTATTTAATG [XGTACX_site5802] | 8.88 ± 0.42
ATATTAATAATATATGCATGCATTAACATATTGAAA [TGCATGCA_site951] | 8.88 ± 0.28
TTTTTTATATATACATATATATAAATATATATAACT [GTGCAC_negctrl_site385] | 8.45 ± 0.45
TATGGAGAAATAAATAGTACGTATTTTATTTAAAAA [XGTACX_site3129] | 8.61 ± 0.47
AAAAATATAAAAATAGCACACATATATACATATATA [CACACA_site7901] | 8.96 ± 0.45
TTTCCTAGCACATGCACACAAAAAAAAAAAAAAAAA [CACACA_site1404] | 8.82 ± 0.45
TATAAAAATATTGAAAGTACTTATTAAAATATTATT [XGTACX_site3701] | 8.46 ± 0.46
ATGTTCGATGATAAATGTACAAAAATAATGGAAGTA [XGTACX_site1916] | 8.99 ± 0.36
CTTGCAAAAAGTATATGTACATATATATATATATAT [XGTACX_site5792] | 9.74 ± 0.042
ATTTTAGGAAAAAAAAGTACATATAATTTTTTATAT [XGTACX_site6954] | 8.26 ± 0.47
TGTTTGCTTATGTGTTAAATATATATATATATATAT [TGCATGCA_negctrl_site218] | 9.25 ± 0.34
CGAACACAAACACAAACACACATCAGATATAAATAT [CACACA_site6736] | 9.34 ± 0.43
TTTTTTTTGATATATACACACAATAAATAAATATAA [CACACA_site7400] | 8.45 ± 0.41
ATTTATTATTATATCACACATAATATATTAAATGAT [CACACA_site5821] | 8.64 ± 0.37
TATATTTCTTCTATAACATGCAGATATATGAAAATA [TGCATGCA_site971] | 8.3 ± 0.36
